# Results taken from paper PMC4336329 (PLoS ONE, 2015).
# About 14,000 (4.5%) of roughly 310,000 compounds showed an effect of 50% or more. The effect is printed as a negative number. The list shows a part of the results.
# Molecular target: human ether-à-go-go-related gene (hERG) potassium channel (human, UniProt Q12809)
# Assay: primary screen, population patch clamp on CHO cells stably expressing hERG
# 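Note: peak tail current of the secondary pulse compared with the same well before compound.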
# Sequence of human ether-à-go-go-related gene (hERG) potassium channel (Q12809 whole entry, looked up): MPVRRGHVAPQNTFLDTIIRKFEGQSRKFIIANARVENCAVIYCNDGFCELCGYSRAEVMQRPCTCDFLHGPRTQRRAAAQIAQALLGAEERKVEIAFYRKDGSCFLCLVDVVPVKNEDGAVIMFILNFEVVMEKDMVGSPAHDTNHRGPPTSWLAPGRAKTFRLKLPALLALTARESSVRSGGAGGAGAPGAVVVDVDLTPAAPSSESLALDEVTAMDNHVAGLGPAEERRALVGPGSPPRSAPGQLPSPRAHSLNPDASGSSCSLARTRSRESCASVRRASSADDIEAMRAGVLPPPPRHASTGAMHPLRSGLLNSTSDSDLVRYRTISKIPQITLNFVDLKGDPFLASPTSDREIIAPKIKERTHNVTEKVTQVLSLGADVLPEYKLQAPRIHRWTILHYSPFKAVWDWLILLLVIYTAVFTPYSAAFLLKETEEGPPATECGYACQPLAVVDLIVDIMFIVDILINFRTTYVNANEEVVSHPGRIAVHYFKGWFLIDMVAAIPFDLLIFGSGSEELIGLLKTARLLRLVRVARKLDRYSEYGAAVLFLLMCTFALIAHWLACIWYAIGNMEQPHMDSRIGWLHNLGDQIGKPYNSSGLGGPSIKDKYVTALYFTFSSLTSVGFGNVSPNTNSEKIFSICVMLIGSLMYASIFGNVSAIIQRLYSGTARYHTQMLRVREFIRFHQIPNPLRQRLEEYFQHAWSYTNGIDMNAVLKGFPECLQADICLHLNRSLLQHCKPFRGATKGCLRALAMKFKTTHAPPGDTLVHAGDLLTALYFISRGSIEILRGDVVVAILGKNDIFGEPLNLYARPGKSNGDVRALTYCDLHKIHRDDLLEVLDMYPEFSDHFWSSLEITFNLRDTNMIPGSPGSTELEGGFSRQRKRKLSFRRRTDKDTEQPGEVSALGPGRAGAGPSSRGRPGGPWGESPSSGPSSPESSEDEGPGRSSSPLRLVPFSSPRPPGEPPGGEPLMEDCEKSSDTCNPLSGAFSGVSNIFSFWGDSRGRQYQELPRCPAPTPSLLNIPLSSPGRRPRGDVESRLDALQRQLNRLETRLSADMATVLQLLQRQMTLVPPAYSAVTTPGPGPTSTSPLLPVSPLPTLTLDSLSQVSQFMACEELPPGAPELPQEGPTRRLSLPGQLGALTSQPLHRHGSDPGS
row,SMILES,"hERG current change (%, negative = inhibition) at 10uM"
1,O=C(COC(=O)CCc1ccc(S(=O)(=O)N2CCOCC2)cc1)Nc1cccc(Cl)c1,-30.3%
2,O=C(O)C(=O)O.OCCN1CCN(C(=S)Nc2cccc(C(F)(F)F)c2)CC1,3.49%
3,Cc1cc(C(=O)N/N=C/c2ccccc2)c(C)o1,10.7%
4,CC1CCC/C(=N\NS(=O)(=O)c2ccccc2)C1 (centres unmarked),11.6%
5,Cc1c(C(=O)OCC(=O)Nc2ccccc2OC(F)F)cccc1[N+](=O)[O-],-6.61%
6,Cc1n[nH]c(C)c1CCCCOc1ccc([N+](=O)[O-])cc1,-16.4%
7,Cc1nc2cc(Cl)c(Cl)cc2n1-c1ccccn1,-48.8%
8,COc1ccccc1-c1nnc(Sc2nc([N+](=O)[O-])nn2C)o1,-6.64%
9,O=C(COC(=O)c1ccc(CSc2ccc(Cl)cc2)cc1)Nc1ccccc1,18.8%
10,O=C(NCCCn1ccnc1)/C(=C/c1cccs1)NC(=O)c1ccco1,-50.8%
11,CCOC(=O)C1(Cc2cccc(OC)c2)CCN(C/C=C/c2ccccc2)CC1,-75.9%
12,Cc1ccccc1N(C(=O)Cc1cccs1)C(C(=O)NCC1CCCO1)c1cccnc1 (centres unmarked),-16.3%
13,CN(C)Cc1ccc(CNC(=O)COc2ccc3ccccc3c2)cc1,2.62%
14,Cc1cccc(C)c1OCc1nnc(SCC(=O)Nc2nccs2)n1-c1ccccc1,-1.92%
15,Cc1ccccc1NC(=O)CC1SCCNC1=O (centres unmarked),7.45%
16,Cc1cc(N)c2ccccc2n1,7.4%
17,COc1ccc(CNC(=O)COC(=O)/C=C/c2cccs2)cc1,5.58%
18,CSc1ccccc1C(=O)NC1CCCc2ccccc21 (centres unmarked),-7.14%
19,NS(=O)(=O)c1cccc(NC(=O)Nc2ccccc2)c1,0.0111%
20,C/C=C/c1ccc(OCC(O)CNCCc2ccc(OC)cc2)c(OC)c1.O=C(O)C(=O)O (centres unmarked),-73.4%
21,COC(=O)c1ccccc1Oc1ccc(NC(=O)CCCl)cc1,-0.142%
22,COc1ccc(NC(=O)CN2C(=O)NC3(CC(C)CC(C)(C)C3)C2=O)cc1S(=O)(=O)N1CCCCC1 (centres unmarked),-35.3%

row,SMILES,"hERG current change (%, negative = inhibition) at 10uM"
1,C=CCn1c(SCC)nc(O)cc1=O,-10.4%
2,O=C(COC(=O)c1cc([N+](=O)[O-])ccc1N1CCOCC1)c1ccc(Br)cc1,-44.6%
3,O=c1c2ccccc2nc2n1C1(CCCCC1)Cc1ccccc1-2,-6.27%
4,COc1ccc(C(=O)OCC(=O)NC(C)CCc2ccccc2)cc1OC (centres unmarked),0.524%
5,OC(c1ccc(OCc2ccccc2)cc1)c1nnc(-c2ccccc2)o1 (centres unmarked),-11.6%
6,CCCC(=O)Nc1cccc(NC(=O)c2ccc(C)c([N+](=O)[O-])c2)c1,-3.03%
7,COc1ccc(CN=C(N)N=C(N)N)cc1Cl.Cl,3.84%
8,CNC(=O)OCCc1n(C)cc[n+]1C.[I-],13.9%
9,COc1ccc(N(CC(=O)Nc2ccc(F)cc2F)S(=O)(=O)c2c(C)nn(C)c2C)cc1,-12.4%
10,CC1CCCC(C)N1C(=O)Cn1cc(C#N)c2ccccc21 (centres unmarked),9.8%
11,COc1ccc(CNC(=O)CNC(c2ccccc2)c2ccccc2)cc1OC,-34.4%
12,COc1ccc(NC(=O)CSc2nnc(C3CCCCC3)o2)c(OC)c1,-8.97%
13,CCOC(=O)N1CCN(c2c(N3CCC(N4CCCCC4)CC3)c(=O)c2=O)CC1,14.7%
14,CCOC(=O)C1=C(C)N=c2sc(=C(C)C)c(=O)n2C1c1ccc(N(C)C)cc1 (centres unmarked),-7.45%
15,COc1cccc(CNC(=O)Cc2csc(Nc3nc(=S)[nH]c4ccccc34)n2)c1,13.5%
16,Cc1ccc(OCCC(=O)OCC(=O)NNC(=O)c2ccccc2)cc1,17.8%
17,O=C(C1CCN(S(=O)(=O)c2cc(Cl)ccc2Cl)CC1)N1CCCC1,-0.339%
18,Cc1nc(Nc2c(Cl)cccc2Cl)sc1C(=O)Nc1ccccc1,-20%
19,COc1ccccc1NC(=S)NCc1ccccc1Cl,-1.31%
20,C=CCn1c(O)c(C(C)=Nc2cc(OC)ccc2OC)c(=O)[nH]c1=O,-0.337%
21,O=c1c(-c2cccc3ccccc23)[n+]([O-])c2ccccc2n1O,8.85%
22,CC(C)OP(=O)(OC(C)C)C1(NS(=O)(=O)c2ccc(Cl)cc2)C=C(Cl)C(=O)C(Cl)=C1,-18.7%
